T1: UNK ZnF1-3 (human, UniProt Q9C0B0 31-174)
T1 sequence: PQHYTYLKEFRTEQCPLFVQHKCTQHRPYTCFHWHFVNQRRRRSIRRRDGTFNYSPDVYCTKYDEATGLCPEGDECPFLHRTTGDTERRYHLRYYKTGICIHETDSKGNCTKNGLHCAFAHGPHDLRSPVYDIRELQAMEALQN

B1: chr13:17810563:17810564:-_ENSMUSG00000041297_ENSMUST00000042365|mus_hu|FALSE|FALSE (ssRNA)
RNA: GGGAGUUCUACAGUCCGACGAUCAGCAAGCAGCUGUAACAGGGCUGCCUUCACUCCGGCAUGAGGGUCAGUUAAUGAAGAACUGGUGGUGGGUACAUGCUGGUUUUCUGUCCGAUAAUCUAGAUCUUCCUCAGUGACUGGUGGCAACAGAGGAUUGAGCAUCA
B2: 14291001_14291121_801_CDS_ENSG00000038382_ENST00000344204|human|control|control (ssRNA)
RNA: GGGAGUUCUACAGUCCGACGAUCUCCCUCCAAAUCCAGGUCCUCGAUGGGGGCCUUAAUCACCUUCUUCUUCAGCUGAGAAUGUUCCUCGAUCAUAUUCCGAGCCCCCUCUAAAUCCUGAGGCAGCUCCUUCUUAGCUAGGAUCAACAGAGGAUUGAGCAUCA
B3: chr9:95013113:95013114:-_ENSG00000196305_ENST00000443024|hu_hu|hu_hu_hu_mus_False|98_108 (ssRNA)
RNA: GGGAGUUCUACAGUCCGACGAUCCUCAGUGAGAAAAGGUGUGUAGGGGGCCAUCAGUCUGCACAGAGAAAGCAGGACACUGAACAGUGUCUCCAGAGCCAUGACACAGUCUUCCACCCCACUCUCACCCUUUAACCUCCUCCUCAACAGAGGAUUGAGCAUCA
B4: chr11:23185130:23185131:+_ENSMUSG00000020290_ENSMUST00000020538|mus_hu|motif|central (ssRNA)
RNA: GGGAGUUCUACAGUCCGACGAUCAAAUGGCAUCACUUCUCCAACCUGAACCUGAACGAAAUGCCUGCGGCAUUUUUGGGCGGUUUUAAUGAAAGUAUCACAAGCCAUAUCCUGGACUCCAUCAUGGGUCUCAUGCAUGAAUUCCAACAGAGGAUUGAGCAUCA
B5: chr1:225611761:225611762:-_ENSG00000143815_ENST00000272163|hu_mus|hu_hu_hu_mus_True|18_28 (ssRNA)
RNA: GGGAGUUCUACAGUCCGACGAUCCCAGGCCAUCGGCCUCUGACCACUUCACCCUCAACAAACUUCCUACUUGGCAUUUUCUAAAAUUAGUCUGGCCGCGCUCCGGCCGGUGACACGGACGGCUCCCGACAGUCACCAGCAGCCCAACAGAGGAUUGAGCAUCA
B6: chr7:19736620:19736621:-_ENSG00000105849_ENST00000222567|hu_hu|FALSE|FALSE (ssRNA)
RNA: GGGAGUUCUACAGUCCGACGAUCCAUUGUCUAGCACAUCUACUUGUAGACAAUUGUGAACAUCUGCCACUCUGCCAAUUCUAUAUCCCAUCAUUGUAAGUUCAGAUCAACAUAUACCACUAGCAGAAUUUAUUCAUUACCAAACAACAGAGGAUUGAGCAUCA
B7: chr5:162900210:162900211:+_ENSG00000072571_ENST00000358715|hu_mus|FALSE|FALSE (ssRNA)
RNA: GGGAGUUCUACAGUCCGACGAUCUUGGAUGUAUUCUAAGAGUUUUUCUGUUUCACAUUUUUCAUCGAUCUUUUCUUUCUCUAUUGAAACAAGCUUUCCCUCCAGCUGGACUAUUUUUCCCUUAGACUCCGUGAGGUCCUUCUGCAACAGAGGAUUGAGCAUCA
B8: 20922476_20924523_344_3pUTR_ENSG00000124422_ENST00000537526|human|control|control (ssRNA)
RNA: GGGAGUUCUACAGUCCGACGAUCGUUGAAAACUUCUCUCCAACGCCUUGCAUUUUCCAAGCUUUUCGCUGCUCCUCCUUGGCGAUUAUUUCCAUGUCUUUGUCAUAGAUGUAGUCCUGGCACAGAAAACAGUAGAUGCCUCCGCAACAGAGGAUUGAGCAUCA
B9: chr16:45382771:45382772:-_ENSMUSG00000022661_ENSMUST00000163230|mus_mus|mus_mus_mus_hu_True|1_1 (ssRNA)
RNA: GGGAGUUCUACAGUCCGACGAUCCUGGGUCAUGUUAUAAGACAAAUGGACAGGGAGGGCAUGCUUCUCAAAAAAUGUGAGCUAUUGUCUAAGACUAACAAUAUUUAUCUAGCUAUAAAAAUAAGUUAAAUGAAUAAACAUUACCAACAGAGGAUUGAGCAUCA
B10: chr8:74858975:74858976:-_ENSG00000154582_ENST00000284811|hu_mus|hu_hu_hu_mus_True|1_18 (ssRNA)
RNA: GGGAGUUCUACAGUCCGACGAUCGACCUUGUAGGUAAAAUACAUGCACACUUUUGAUAGCACAUGUGAGGGGAUCUCUCUAAAAUUGACCUCGUUGGUUUCAUUCUCAGCAAACUGACCUGGGCCACUCAACAUAGCUUUUAUCAACAGAGGAUUGAGCAUCA
B11: chr20:60962932:60962933:+_ENSG00000171858_ENST00000343986|hu_hu|FALSE|FALSE (ssRNA)
RNA: GGGAGUUCUACAGUCCGACGAUCGGAAUCAUCUGACUCACCCAUCCUACGAAUGGCCCCGCAGAUAGCAUAAGUUUUAAACUGGCCAUUAAACCUGCCUGUGACCUUGUCAACCUCGGCCACGUUCAUCUGGAUGGAUGCGUGCAACAGAGGAUUGAGCAUCA
B12: chr11:75578903:75578904:+_ENSMUSG00000020849_ENSMUST00000067664|mus_hu|FALSE|FALSE (ssRNA)
RNA: GGGAGUUCUACAGUCCGACGAUCUAGCUUCAAGUUACACAUACUGAACAAAAGAGGUUGAGCGAGCGAAGGAGGGGAGGAGUGAGGGGAAGGAGGUAGGGGGAGGGGGAAGGAGAAGAAACAAAAGAAUUGAACAGGCAUGCACAACAGAGGAUUGAGCAUCA
B13: chr8:101932682:101932683:-_ENSG00000164924_ENST00000353245|hu_hu|motif|central (ssRNA)
RNA: GGGAGUUCUACAGUCCGACGAUCAGACAUGGAAGCAGUUUUACACUGGCCCUUUUGAAGCCACAAUGUACCAAAAGUACGGUGCCAAACACUUAUAACUUGUAUAAAAAUUCCACAUCCCCAUAUUGGCCACCUCAAGAUGAACAACAGAGGAUUGAGCAUCA
B14: 120128408_120129817_729_3pUTR_ENSG00000163430_ENST00000295633|human|control|control (ssRNA)
RNA: GGGAGUUCUACAGUCCGACGAUCGUUGCUGCCUUUAGAGAACCAGCCAUCUGGAAUGAUCUCAGCUUCCAGCCACUGGAUGAUGCGACGUCGGAGCUCAUCACGGUUGGACUGAUAGCAAACAACUGGGCUGGCAGAUGGACUCAACAGAGGAUUGAGCAUCA
B15: chr19:582928:582929:+_ENSG00000172270_ENST00000353555|hu_hu|motif|central (ssRNA)
RNA: GGGAGUUCUACAGUCCGACGAUCGGGGCCGCAGGGCAGCAGCUCCCGGGCUCUCGUGAAACACUUCAGAAGGAAAAAAACCGGAGGAACAGAAUCCUGAAUGGAGAAAACCCAACUUUUUUAAAAAAGAAGGAAGUGUAUGAUCAACAGAGGAUUGAGCAUCA
B16: chrX:140365796:140365797:-_ENSMUSG00000031285_ENSMUST00000033642|mus_mus|mus_mus_mus_hu_False|38_48 (ssRNA)
RNA: GGGAGUUCUACAGUCCGACGAUCCUUCUCAUUACUCAGUGCCUGCAAGGUUCUGGUUCGGUAGAAGCUACAGUGGGCGCUGUGAGUGGGACUUGGAAGUCCAUUCAUCCGGGAGCCUCGCAUGUUCCUGGAUGUCUUAUCUCUCAACAGAGGAUUGAGCAUCA
B17: 102332062_102332290_2134_CDS_ENSMUSG00000023050_ENSMUST00000169377|mouse|control|control (ssRNA)
RNA: GGGAGUUCUACAGUCCGACGAUCUGAAGGGGGGCCCUUAGGACACCCAGGAAGCCCCACCCCACUUAGGGCUGCAUCUAGUUUAGGUAGCAACGACUCUGUCUUGAGAAUAUCUGGCCUUUUGCUGUGGGGCGACAGUUUCUGCAACAGAGGAUUGAGCAUCA
B18: 52344032_52344152_385_CDS_ENSG00000078618_ENST00000352171|human|control|control (ssRNA)
RNA: GGGAGUUCUACAGUCCGACGAUCUUCAUCCGCUCCUAGACGGGCAACCCGGCUGUUCUCGCCCAGAUCCUGUCCAUUGGGCUGCAGGUCAGGGCAGCUGCAGGUAGACUUCGCCUUGUUCCUUCCAGGCAUGGCCAGAAUAGGCAACAGAGGAUUGAGCAUCA
B19: 10163011_10163340_3299_CDS_ENSMUSG00000067851_ENSMUST00000088615|mouse|control|control (ssRNA)
RNA: GGGAGUUCUACAGUCCGACGAUCCACUCCAGUUCCUAUAAGUUGUGCCAGCUCUAACUGACUGAUGCACUUCAGGAUCUCAUGCCACGAAUUUCCUAAAUAAUUUCCAUCAGUGUGAGCCACCGUGAUGAGUGUUUUUAUUGUCAACAGAGGAUUGAGCAUCA
B20: 98536648_98538076_1479_CDS_ENSG00000057019_ENST00000326840|human|control|control (ssRNA)
RNA: GGGAGUUCUACAGUCCGACGAUCCCAUUUCUGCCCAUCAUCACUGUACAGGAUUCUGUAGGCAGACACAUAGUAAUUGUGCUCCACCAUGGUGGAUCCAGUGGUUAUAAUGCCUGUUAUUUUCUUUUCCUUAUUCAAAUCUAUCAACAGAGGAUUGAGCAUCA
B21: chr11:102546300:102546301:-_ENSMUSG00000020925_ENSMUST00000092569|mus_hu|motif|central (ssRNA)
RNA: GGGAGUUCUACAGUCCGACGAUCUGGGCCAAAUUCGGCCCGUGGGCAGUAGUUUGCCAACCCCUGGUAUAAAAUAUCGGCUUUGUCUUGUCAGAGAAAUUGCUGUCCUUAGGCUUCUAGACAAUCUGCUGCCUGAAGUCAAGUCAACAGAGGAUUGAGCAUCA
B22: 57178102_57183052_1624_CDS_ENSMUSG00000022749_ENSMUST00000023431|mouse|control|control (ssRNA)
RNA: GGGAGUUCUACAGUCCGACGAUCCUUGCCCACUCUGUCGCUGCUGCUCACGUGCCGGUCCACAGGAGUCGACGAGUUCUCAAUAAAGCUGAUGACCUUUUCCCUAACGGUAACGGAUUUUGUCUUUAGAGCCACAGUCAUUUUCAACAGAGGAUUGAGCAUCA

The other results are listed elsewhere or left out.

This assay addresses T1, UNK ZnF1-3. In words: nsRBNS (natural sequence RNA bind-n-seq); RBNS binding buffer (assumed for nsRBNS): 25 mM Tris pH 7.5, 150 mM KCl, 3 mM MgCl2, 0.01% Triton X-100, 500 ug/ml BSA, 20 U/ml SUPERase-In, 4 C; UNK is unkempt and MSI1 is Musashi-1; names of the RNAs are library labels; protein concentration not given here; high values mean tight binding.
For the molecule B1, the binding signal was 2.38 enrichment R.
The result for B2 reads 0.804 enrichment R.
Under B3 stands 1.34 enrichment R; under B4, 0.838 enrichment R; under B5, 1.21 enrichment R.
B6 returned a binding signal of 1.3 enrichment R.
B7 yielded a binding signal of 0.307 enrichment R.
B8 displayed a binding signal of 0.624 enrichment R.
As to B9, the binding signal was found to be 2.2 enrichment R.
B10 returned a binding signal of 0.793 enrichment R.
For B11, the binding signal was 0.384 enrichment R.
For the molecule B12, the binding signal worked out at 1.81 enrichment R.
Under B13 stands 1.46 enrichment R; under B14, 0.762 enrichment R.
B15 came in with a binding signal of 1.87 enrichment R.
With B16, the binding signal turned out to be 0.5 enrichment R.
For the molecule B17, the binding signal amounted to 1.03 enrichment R.
B18 registered a binding signal of 0.607 enrichment R.
For B19, the binding signal was determined as 0.897 enrichment R.
Under B20 stands 0.726 enrichment R; under B21, 0.686 enrichment R.
The molecule B22 had a binding signal of 0.923 enrichment R.

Source of the values: paper PMC12136788.
